This is one part of the list. The full chains were built here from the parent and the listed change. Inactive controls read about 0.05.
B1: TEV protease; numbered along this chain (parent)
chain: MGESLFKGPRDYNPISSSICHLTNESDGHTTSLYGIGFGPFIITNKHLFRRNNGTLVVQSLHGVFKVKDTTTLQQHLVDGRDMIIIRMPKDFPPFPQKLKFREPQREERICLVTTNFQTKSMSSMVSDTSCTFPSGDGIFWKHWIQTKDGQCGSPLVSTRDGFIVGIHSASNFTNTNNYFTSVPKNFMELLTNQEAQQWVSGWRLNADSVLWGGHKVFMVKPEEPFQPVKEATQL

Variants of: B1
Experiment: raw area under fraction-flipped curve 0-4 h after induction (AUC4h, not background-subtracted), DNA-recorder readout of cleavage of the substrate (dimensionless); higher = more cleavage of the substrate by the protease variant
Details: temperature: 34 °C; time window: 0-4 h after rhamnose induction
Description: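 In vivo DNA recorder in E. coli TOP10(DE3) ΔrhaA at 34 °C. Each TEVp single-site mutant (parent TEVp 0) is paired with a single-site variant of the 7-mer TEVs (canonical ENLYFQ|S). The substrate sits between flexible linkers in a Bxb1-sfGFP-TEVs-SsrA fusion, so cleavage stabilises Bxb1 and speeds flipping of a recombination array, read by NGS. The value is the raw area under the fraction-flipped curve over 0-4 h after rhamnose induction (AUC4h), with ≥20 reads per time point. It is not background-subtracted; inactive controls average about 0.047.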
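Further: Bxb1 expression induced with 0.2% (w/v) L-rhamnose at OD600 near 0.5, cultures sampled hourly, flipped fraction per protease–substrate barcode pair counted by paired-end Illumina sequencing.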

Row | Variant | area with substrate CNLYFQS | area with substrate DNLYFQS | area with substrate GNLYFQS | area with substrate HNLYFQS | area with substrate KNLYFQS | area with substrate LNLYFQS | area with substrate MNLYFQS | area with substrate PNLYFQS | area with substrate RNLYFQS | area with substrate SNLYFQS | area with substrate WNLYFQS | area with substrate YNLYFQS | area with substrate INLYFQS | area with substrate NNLYFQS | area with substrate TNLYFQS | area with substrate VNLYFQS | area with substrate FNLYFQS | area with substrate QNLYFQS
1 | MGESLFKGPRDYNPISSSICHLTNESDGHTTSLYGIGFGPFIITNKHLFRRNNGTLVVQSLHGVFKVKDTTTLQQHLVDGRDMIIIRMPKDFPPFPQKLKFREPQREERICLVTTNFQTKSMSSMVSDTSCTFPSGDGIFWKHWIQTKDGQCGSPLVSTRDGFIVGSHSASNFTNTNNYFTSVPKNFMELLTNQEAQQWVSGWRLNADSVLWGGHKVFMVKPEEPFQPVKEATQL [I167S] | 0.059 | 0.0322 | 0.0609 | 0.0615 | 0.06 | 0.0718 | 0.0575 | 0.0726 | 0.054 | 0.0573 | 0.0469 | 0.0721 | – | – | – | – | – | –
2 | MGESLFKGPRDYNPISSSICHLTNESDGHTTSLYGIGFGPFIITNKHLFRRNNGTLVVQSLHGVFKVKDTTTLQQHLVDGRDMIIIRMPKDFPPFPQKLKFREPQREERICLVTTNFQTKSMSSMVSDTSCTFPSGDGIFWKHWIQTKDGQCGSPLVSTRDGFIVGYHSASNFTNTNNYFTSVPKNFMELLTNQEAQQWVSGWRLNADSVLWGGHKVFMVKPEEPFQPVKEATQL [I167Y] | 0.0578 | 0.066 | – | 0.0497 | – | 0.0511 | – | 0.0571 | 0.0646 | 0.0519 | 0.0751 | – | 0.0442 | 0.0506 | 0.059 | 0.0511 | – | –
3 | MGESLFKGPRDYNPISSSICHLTNESDGHTTSLYGIGFGPFIITNKHLFRRNNGTLVVQSLHGVFKVKDTTTLQQHLVDGRDMIIIRMPKDFPPFPQKLKFREPQREERICLVTTNFQTKSMSSMVSDTSCTFPSGDGIFWKHWIQTKDGQCGSPLVSTRDGFIVGIHSAVNFTNTNNYFTSVPKNFMELLTNQEAQQWVSGWRLNADSVLWGGHKVFMVKPEEPFQPVKEATQL [S171V] | 0.0259 | 0.0559 | 0.0537 | 0.0496 | 0.0526 | 0.0604 | – | 0.062 | – | 0.0624 | 0.0578 | 0.0634 | – | 0.0716 | 0.0652 | 0.0476 | – | –
4 | MGESLFKGPRDYNPISSSICHLTNESDGHTTSLYGIGFGPFIITNKHLFRRNNGTLVVQSLHGVFKVKDTTTLQQHLVDGRDMIIIRMPKDFPPFPQKLKFREPQREERICLVTTNFQTKSMSSMVSDTSCTFPSGDGIFWKHWIQTKDGQCGSPLVSTRDGFIVGIHSASEFTNTNNYFTSVPKNFMELLTNQEAQQWVSGWRLNADSVLWGGHKVFMVKPEEPFQPVKEATQL [N172E] | 0.0549 | 0.0488 | – | 0.0602 | – | 0.0554 | – | – | – | 0.0706 | 0.0559 | – | 0.0596 | 0.0892 | 0.0551 | – | – | –
5 | MGESLFKGPRDYNPISSSICHLTNESDGHTTSLYGIGFGPFIITNKHLFRRNNGTLVVQSLHGVFKVKDTTTLQQHLVDGRDMIIIRMPKDFPPFPQKLKFREPQREERICLVTTNFQTKSMSSMVSDTSCTFPSGDGIFWKHWIQTKDGQCGSPLVSTRDGFIVGIHSASNMTNTNNYFTSVPKNFMELLTNQEAQQWVSGWRLNADSVLWGGHKVFMVKPEEPFQPVKEATQL [F173M] | 0.0651 | 0.0871 | – | 0.0658 | 0.0745 | – | 0.0706 | 0.0804 | – | 0.0534 | 0.0469 | – | – | – | 0.0603 | – | 0.0609 | –
6 | MGESLFKGPRDYNPISSSICHLTNESDGHTTSLYGIGFGPFIITNKHLFRRNNGTLVVQSLHGVFKVKDTTTLQQHLVDGRDMIIIRMPKDFPPFPQKLKFREPQREERICLVTTNFQTKSMSSMVSDTSCTFPSGDGIFWKHWIQTKDGQCGSPLVSTRDGFIVGIHSASNFPNTNNYFTSVPKNFMELLTNQEAQQWVSGWRLNADSVLWGGHKVFMVKPEEPFQPVKEATQL [T174P] | 0.0511 | 0.0599 | – | 0.0584 | 0.0477 | 0.0542 | 0.0675 | – | – | – | 0.0533 | – | 0.0582 | – | 0.0602 | – | – | –
7 | MGESLFKGPRDYNPISSSICHLTNESDGHTTSLYGIGFGPFIITNKHLFRRNNGTLVVQSLHGVFKVKDTTTLQQHLVDGRDMIIIRMPKDFPPFPQKLKFREPQREERICLVTTNFQTKSMSSMVSDTSCTFPSGDGIFWKHWIQTKDGQCGSPLVSTRDGFIVGIHSASNFTETNNYFTSVPKNFMELLTNQEAQQWVSGWRLNADSVLWGGHKVFMVKPEEPFQPVKEATQL [N175E] | 0.0667 | 0.0658 | 0.0631 | 0.0518 | 0.0787 | 0.0504 | – | – | 0.0584 | – | 0.0594 | 0.0612 | – | – | 0.037 | – | – | –
8 | MGESLFKGPRDYNPISSSICHLTNESDGHTTSLYGIGFGPFIITNKHLFRRNNGTLVVQSLHGVFKVKDTTTLQQHLVDGRDMIIIRMPKDFPPFPQKLKFREPQREERICLVTTNFQTKSMSSMVSDTSCTFPSGDGIFWKHWIQTKDGQCGSPLVSTRDGFIVGIHSASNFTRTNNYFTSVPKNFMELLTNQEAQQWVSGWRLNADSVLWGGHKVFMVKPEEPFQPVKEATQL [N175R] | 0.067 | 0.0697 | – | 0.0426 | 0.0562 | – | 0.0679 | 0.0724 | – | 0.0619 | 0.0623 | 0.0557 | 0.0267 | – | 0.0565 | 0.0668 | – | –
9 | MGESLFKGPRDYNPISSSICHLTNESDGHTTSLYGIGFGPFIITNKHLFRRNNGTLVVQSLHGVFKVKDTTTLQQHLVDGRDMIIIRMPKDFPPFPQKLKFREPQREERICLVTTNFQTKSMSSMVSDTSCTFPSGDGIFWKHWIQTKDGQCGSPLVSTRDGFIVGIHSASNFTNTNNKFTSVPKNFMELLTNQEAQQWVSGWRLNADSVLWGGHKVFMVKPEEPFQPVKEATQL [Y179K] | 0.075 | 0.0582 | – | 0.0686 | – | – | 0.0542 | – | – | – | – | 0.0589 | – | – | – | – | – | 0.0475
10 | MGESLFKGPRDYNPISSSICHLTNESDGHTTSLYGIGFGPFIITNKHLFRRNNGTLVVQSLHGVFKVKDTTTLQQHLVDGRDMIIIRMPKDFPPFPQKLKFREPQREERICLVTTNFQTKSMSSMVSDTSCTFPSGDGIFWKHWIQTKDGQCGSPLVSTRDGFIVGIHSASNFTNTNNYETSVPKNFMELLTNQEAQQWVSGWRLNADSVLWGGHKVFMVKPEEPFQPVKEATQL [F180E] | 0.0539 | 0.0349 | 0.0257 | – | – | 0.0648 | – | 0.0669 | 0.0777 | 0.0555 | – | 0.0493 | 0.0483 | – | 0.0584 | – | 0.0564 | –

From the supplement of paper PMC12217912
